# Measured values published in PubChem BioAssay AID463173 (ICCB-Longwood Screening Facility, Harvard Medical School, 2010).
# Out of some 52,000 compounds screened, about 4,300 (8.3%) were called active. Rule as the data show it: active = survival mostly below about 52% (no sharp cut-off); inactive = mostly above about 56%. Some of the results follow.
# Tested on: DeltatarO mutant
# Assay: S. aureus survival, RN4220 and DeltatarO strains – OD600, teichoic acid synthesis inhibitors, primary screen (AID 463173)
# Conditions: S. aureus RN4220 wild type/DeltatarO growth, OD600, 18 h, hits give low values, screened at 18.75 µg/mL (by protocol)
row,Compound,survival
1,Cc1ccc(-c2noc(C(C)NC(=O)c3ccco3)n2)cc1 (configuration not stated),inactive: 70%
2,CCn1cc(C(=O)NCCc2ccc(OC)c(OC)c2)c(=O)c2cc(S(=O)(=O)N3CCOCC3)ccc21,inactive: 70%
3,Cc1ccc(C(=O)Nc2nnc(S(=O)(=O)N(C)Cc3ccco3)s2)cc1,active: 39%
4,Cc1ccc(C)c(NC(=O)CN2CCN(C3CCCCC3)C(=O)C2=O)c1,inactive: 94%
5,COc1cccc(CNC(=O)c2ccc3c(c2)nc2n3CCOC2)c1OC,inactive: 81%
6,CC1CCN(S(=O)(=O)c2ccc3c(ccn3CC(=O)NCc3ccccc3F)c2)CC1,inactive: 54%
7,CC1=C(c2ccc(C)cc2)S(=O)(=O)N(Cc2ccc(C(=O)NCc3ccccc3)cc2)C1=O,inactive: 81%
8,O=C(NCc1ccc(F)cc1)c1ccc2c(c1)N(Cc1c(F)cccc1Cl)C(=O)CS2,active: 40%
9,Cc1cc(C)c2c(=O)cc(C(=O)Nc3sc4c(c3C#N)CCCC4)oc2c1,active: 12%
10,Cc1ccccc1NC(=O)CN1C(=O)C2(SCC(=O)N2c2ccc(F)cc2)c2ccccc21 (configuration not stated),inactive: 72%
11,COCCCNC(=O)CSc1nc2cc3c(cc2c(=O)n1CCCCCC(=O)NCCc1ccc(OC)c(OC)c1)OCO3,inactive: 88%
12,COc1ccccc1CNCC(=O)NCc1ccc(C)cc1,inactive: 96%
13,CC(C)(C)C1CCc2nc(NC(=O)COc3ccccc3[N+](=O)[O-])sc2C1 (configuration not stated),inactive: 106%
14,CCc1nn2c(=O)cc(COC(=O)c3cccc(NC(=O)c4ccccc4C)c3)nc2s1,inactive: 86%
15,O=C(NCc1ccc2c(c1)OCO2)c1ccc(S(=O)(=O)N2CCCC2)cc1,inactive: 84%
16,Cc1ccc(CNS(=O)(=O)c2cc(C(=O)Nc3ccc(C(C)C)cc3)ccc2F)cc1,inactive: 80%
17,COc1ccc(C2=C(C)C(N3CCC(C(=O)NCc4ccco4)CC3)=NS2(=O)=O)cc1,inactive: 84%
18,CCN(CC)c1ccc(NC(=O)c2ccccc2F)cc1,active: 63%
19,Cc1ccc(CNC(=O)CSCc2nc(-c3ccc(Cl)cc3)oc2C)cc1,inactive: 66%

row,Compound,survival
1,COc1ccc2c(c1)c(CC(=O)Nc1cccc(F)c1C)c(C)n2C(=O)c1ccc(Cl)cc1,inactive: 126%
2,O=C(Nc1ccc(F)c(F)c1)c1cc(S(=O)(=O)N2CCc3ccccc32)ccc1F,inactive: 81%
3,COc1cccc(-n2ccn(CC(=O)Nc3ccccc3F)c(=O)c2=O)c1,inactive: 78%
4,COC(=O)c1ccccc1NC(=O)COCc1cc(-c2cccs2)on1,inactive: 98%
5,COc1ccc(-c2cc(C(=O)Nc3cccc(C(C)=O)c3)no2)cc1OC,inactive: 67%
6,Nc1nonc1C(=O)N1CCCC1,inactive: 98%
7,CCn1c(=O)n(-c2ccc(F)c(Cl)c2)c(=O)c2sc3ccccc3c21,inactive: 96%
8,Cc1ccc(CN(C(=O)c2ccc(F)cc2)c2ccccn2)o1,inactive: 66%
9,Cc1ccc(CNc2nc3c(c(=O)n(C)c(=O)n3C)n2Cc2ccc(Cl)cc2)cc1,inactive: 54%
10,CCOc1ccc2nc(Cl)c(CN(Cc3ccco3)C(=O)N(C)C)cc2c1,inactive: 59%
11,CCOC(=O)c1[nH]c2ccccc2c1NC(=O)c1cc(OC)cc(OC)c1,active: 48%
12,COc1ccc(N2C(N)=C(C#N)C(c3ccc(O)c(OC)c3)C3=C2CCCC3=O)cc1 (configuration not stated),inactive: 95%
13,COc1cccc(-c2ccnc3c(-c4ccccc4)c(C)nn23)c1,inactive: 51%
14,CCOc1ccc(NC(=O)N2CCC(CN3CCC(C)CC3)CC2)cc1,inactive: 117%
15,Cc1cccc(N2CCN(C(=O)COCc3cc(-c4ccc5c(c4)OCO5)on3)CC2)c1C,inactive: 101%
16,Cc1ccccc1-c1nc2c3c(-c4ccccc4)c(-c4ccccc4)oc3ncn2n1,inactive: 58%
17,CCOc1ccc2nc(N3CCCC(C(=O)NCCc4ccc(Cl)cc4)C3)sc2c1 (configuration not stated),active: 48%
18,CCOC(=O)c1c(NC(=O)Cc2coc3ccc(CC)cc23)sc2c1CCC2,inactive: 82%
19,Cc1cccc(N2CCN(c3ccc4cc(S(=O)(=O)N5CCC(C)CC5)ccc4n3)CC2)c1C,inactive: 85%

row,Compound,survival
1,COc1ccccc1NC(=O)N1CCN(c2ccc3nnc(-c4ccc(F)cc4)n3n2)CC1,inactive: 93%
2,CCOc1ccc(NC(=O)Cn2nc(Cc3cccnc3)c3ccccc3c2=O)cc1,inactive: 84%
3,COc1ccc(N2CCN(CCCNC(=O)c3c(C)nn(-c4ccc(F)cc4)c3-n3cccc3)CC2)cc1,inactive: 71%
4,CCc1ccc(NC(=O)Cn2nnc(-c3ccccc3N)n2)cc1,inactive: 62%
5,COc1ccc(S(=O)(=O)N(CC(=O)NC(C)c2ccccc2)c2ccc(C)cc2)cc1OC (configuration not stated),inactive: 71%
6,COc1ccccc1N1CCN(C(=O)c2cc3c(=O)n(Cc4cccs4)ccc3nc2C)CC1,inactive: 74%
7,O=C(CCC(=O)NC1CCN(Cc2ccccc2)CC1)NCc1ccco1,inactive: 73%
8,CCOC(=O)N1CCc2c(sc3c2c(=O)n(-c2ccc(CC)cc2)c(=O)n3Cc2ccc(F)cc2Cl)C1,inactive: 72%
9,CCOc1ccccc1Nc1sc(C(=O)c2ccccc2)c(N)c1C(=O)Nc1ccc(F)cc1,inactive: 85%
10,Cc1ccc(Cn2ccnc2SCC(=O)NCc2ccccc2)cc1,inactive: 89%
11,Cc1ccc(NC(=O)c2ccc3c(c2)NC(=O)c2ccccc2S3)c(Cl)c1,inactive: 89%
12,Cc1nn(CC(=O)NC2CC2)c(=O)c2cc3cc(F)ccc3n12,inactive: 81%
13,CSc1ccc(CCNC(=O)Cn2nc(C)n3c(cc4sccc43)c2=O)cc1,inactive: 88%
14,Cc1nc(-c2ccc(Cl)cc2)sc1CCNC(=O)C(=O)Nc1ccc2c(c1)OCO2,inactive: 71%
15,COc1ccc(CNC(=O)C(=O)NCC(c2ccco2)S(=O)(=O)c2ccc(Cl)cc2)cc1 (configuration not stated),inactive: 128%
16,Cn1c(=O)c2c(nc(SCC(=O)Nc3ccccc3F)n2Cc2ccccc2F)n(C)c1=O,inactive: 65%
17,CCOC(=O)c1cccc(NC(=O)Cn2ncc3c(=O)oc4ccccc4c32)c1,inactive: 74%
18,CC1(C)Oc2ccc(NC(=O)c3ccco3)cc2O1,inactive: 97%
19,CCOC(=O)c1c(C)oc2ncnc(Nc3cccc(C(F)(F)F)c3)c12,inactive: 105%
